The record followed here is the supplement of paper PMC7826260.

Some of the results follow. Viral Rep nickase domains cut single-stranded DNA in vitro (3 µM enzyme, 1 h, 37 °C); shown is the middle of each 90-letter strand. A value is the log2 ratio of uncut reads to the pool without enzyme; uncut sequences lie near 0, cut ones below; no hit call is given. Because reads are shares of a total, they shift together; uncut strands gain when others are lost, and binding without cutting may add a little.

In this assay the test system is T1, Rep nickase domain of tomato golden mosaic virus.
T1 sequence (residues 1-124 of Rep, tag left off): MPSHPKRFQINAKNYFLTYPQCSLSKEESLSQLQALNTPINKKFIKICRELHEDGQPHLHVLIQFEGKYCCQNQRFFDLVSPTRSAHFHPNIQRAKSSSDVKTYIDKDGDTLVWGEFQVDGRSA
Description: uncleaved DNA left, log2 of reads against the no-enzyme library (log2 ratio); higher = less cleavage (more negative = more Rep cleavage of the k-mer); sequences stand for … in CTCGTCCG…ACCGGAGA
As to the method:
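A pool of 90-nt single-stranded DNAs with seven random bases just before the constant AC of the nick site (name = the seven bases) was cut by 3 µM recombinant His6-SUMO-tagged Rep nickase domain (300 nM DNA, 50 mM HEPES pH 8.0, 50 mM NaCl, 1 mM MnCl2, 1 h, 37 °C, three replicates). Uncut DNA was amplified and sequenced.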
CCGACAG: the “uncleaved DNA left (log2)” value was 0.032.
CATACTC: the “uncleaved DNA left (log2)” value is -0.0891.
For the sequence AGAATCC, the “uncleaved DNA left (log2)” value is 0.163.
Consider TTACCCC, for which the “uncleaved DNA left (log2)” value is -0.24.
Regarding ATGACTC, the “uncleaved DNA left (log2)” value is -0.199.
In the case of GTGGCTT, the “uncleaved DNA left (log2)” value came out at 0.0175.
Consider ATCGATT, for which the “uncleaved DNA left (log2)” value was -0.0645.
For the sequence TGTGGAA, the “uncleaved DNA left (log2)” value was -0.156.
With GCTAATA, the “uncleaved DNA left (log2)” value came out at 0.0822.
On to GACTATC, for which the “uncleaved DNA left (log2)” value is 0.145.
With AGTCGTC, the “uncleaved DNA left (log2)” value is 0.00978.
In the case of TCCGGTT, the “uncleaved DNA left (log2)” value was 0.0739.
Turning to GTTCATA, the “uncleaved DNA left (log2)” value was -0.0424.
The result for ATGGGAT reads 0.0725; that for TAGTACA, -0.175; that for CCTCTTG, 0.00487.
The result for TATCTAG reads -0.0884.
Consider CCTAAAC, for which the “uncleaved DNA left (log2)” value came out at 0.0467.
On to CCGCAGT, for which the “uncleaved DNA left (log2)” value was -0.0959.
In the case of ATTGAAT, the “uncleaved DNA left (log2)” value was found to be 0.0573.
With AAGTACA, the “uncleaved DNA left (log2)” value is -0.0698.
On to CGACTAG, for which the “uncleaved DNA left (log2)” value was 0.0249.
With GACGTAG, the “uncleaved DNA left (log2)” value was determined as 0.0745.
For the sequence AAATCGA, the “uncleaved DNA left (log2)” value is -0.00522.
On to AAGTTGC, for which the “uncleaved DNA left (log2)” value is 0.0217.
The result for CACTGCT reads -0.227; that for TATCCCA, -0.122; that for GTCACGA, 0.102.
The result for CCGCTCA reads -0.243; that for CCCGAGT, -0.257; that for ACTGCGC, 0.0269.
The result for GACCGTA reads 0.0378.
For CCTCGGG, the “uncleaved DNA left (log2)” value is 0.0456.
Under CCCTCAT stands -0.0244.
Turning to CCCTGAT, the “uncleaved DNA left (log2)” value is 0.0162.
Turning to GGTGTAG, the “uncleaved DNA left (log2)” value was found to be 0.152.
Regarding ATTTTAG, the “uncleaved DNA left (log2)” value worked out at 0.0597.
Under TCGGCTG stands 0.21; under TACTTTA, -0.128; under GGGGACA, 0.0385.
